Molecules are shown by their SMILES. The campaign covered roughly 50,000 compounds. About 800 (1.6%) showed an effect of 50% or more. The list shows a part of the results.

This experiment concerns the target Bcl-2-like protein 10 (Homo sapiens) (UniProt Q9HD36). The experiment is described as follows: Phenotype converters, Bcl-B/TR3 peptide binding displacement, primary biochemical FP (AID 1240).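 Further: 0% = Bcl-B with tracer peptide and DMSO and 100% = tracer peptide lacking Bcl-B.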 To be noted: GST-Bcl-B / FITC-TR3 peptide fluorescence polarization; stronger effect = higher value; compound at 3.75 mg/L. In general terms: Polarisation of emitted light reports the rotation of a fluorescent probe.
UniProt Q9HD36, sequence (Q9HD36 whole entry, looked up): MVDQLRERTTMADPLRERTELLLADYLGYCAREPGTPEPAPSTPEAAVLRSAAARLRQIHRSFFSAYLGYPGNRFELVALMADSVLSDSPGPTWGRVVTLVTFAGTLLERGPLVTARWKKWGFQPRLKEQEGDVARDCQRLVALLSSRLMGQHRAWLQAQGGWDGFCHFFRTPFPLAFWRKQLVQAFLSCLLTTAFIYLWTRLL
Consider `Cc1ccc(NC(=O)C(F)(F)F)cc1C`, for which the displacement worked out at 14.4%.
Then `Cc1ccc(/C(N)=N/OC(=O)c2ccc(C)c([N+](=O)[O-])c2)cc1`, with 12.3%; and `COC(=O)CNC(c1ccccc1)c1cc(Br)ccc1NC(=O)CCCNC(=O)OCc1ccccc1` (stereo not given), with 15.4%; and `CC(C)OC(=O)c1c(-c2ccc(Br)cc2)csc1N`, with -8.4%.
In the case of `Cc1ccc(C)c(S(=O)(=O)N=Nc2c(O)[nH]c3ccc(Br)cc23)c1` it was 13.1%.
In the case of `C/C(=N\NC(=O)c1cc(C(C)(C)C)[nH]n1)c1cccc([N+](=O)[O-])c1` it was -5.3%.
On to `Cc1cc(/C=C2\C(=O)NC(=O)N(c3ccccc3F)C2=O)c(C)n1C`, for which the displacement came out at 20.4%.
Then `NC(=O)N=Nc1c(O)[nH]c2ccccc12`, with 6.6%.
With `CC(C)CNC(=O)CN(c1ccc(C(C)C)cc1)S(=O)(=O)c1ccccc1`, the displacement turned out to be 2.2%.
In the case of `O=C(Nc1ccccc1C(F)(F)F)c1cc(I)ccc1Cl` it was -4.4%.
Then `COc1ccc(NC(=O)Cn2nc(C(F)(F)F)c(Br)c2C)c(OC)c1`, with -6.7%; and `COc1cccc(/C=C2/SC(=S)N(CC(=O)O)C2=O)c1`, with 9.8%.
Take `CCC(C(=O)N1CCC(Cc2ccccc2)CC1)c1ccccc1` (stereo not given): the displacement was found to be 7.1%.
For the compound `C=CCn1c(O)c(N=NC(=O)c2ccc(Cl)c([N+](=O)[O-])c2)c2cc(Br)ccc21`, the displacement turned out to be 5.3%.
Then `CC(C)c1ccc(CNc2cc(N3CCCC3)ccc2[N+](=O)[O-])cc1`, with -9.4%; and `C/C(=N/NC(=O)Nc1ccccc1)C1CC1`, with 12.9%; and `Cc1c(C(=O)NN(c2ccccc2)c2ccccc2)cccc1[N+](=O)[O-]`, with -4.1%.
`O=C(O)CCCN1C(=O)C(=O)/C(=C(/O)c2ccccc2)C1c1ccccc1F` (stereo not given): the displacement was -2.5%.
Then `CS(=O)(=O)N(CC(=O)NC1CC1)c1ccc(Cl)cc1`, with -13.2%; and `O=C(Nc1ccc(Cl)c(Cl)c1)Nc1nnc(-c2ccc(F)cc2)s1`, with 5%; and `CC(=O)c1ccc(N2C(=O)C3CCC(C)(C2=O)C3(C)C)cc1` (stereo not given), with -8.8%.
Then `Cc1ccc2nc(SCC(=O)Nc3cccc([N+](=O)[O-])c3)[nH]c2c1`, with 9%.
For the compound `COc1ccc(CC(=O)Nc2cccc(Br)c2)cc1OC`, the displacement came to 2%.
In the case of `CCOC(=O)/C=C/C(=O)Nc1nc(-c2ccccc2)cs1` it was -15.9%; in that of `O=C(Cc1ccccc1)Nc1cc(C(F)(F)F)cc(C(F)(F)F)c1`, -0.6%; in that of `CC(=O)C1=C(O)C(=O)N(c2nc3ccccc3s2)C1c1ccc(C(C)C)cc1` (stereo not given), -12.7%.
In the case of `NS(=O)(=O)c1cccc(-c2ccc(C=O)o2)c1` it was 7.1%; in that of `Cc1cc(C)c(N2C(=O)NC(=O)C(=Cc3ccoc3)C2=O)c(C)c1`, 14.1%.
In the case of `CCOCCOC(=O)c1ccc(NC(=O)c2ccc(C)cc2)cc1`, the displacement turned out to be 7.4%.
Then `CC(C)(C)P(=O)(c1ccc(C(=O)O)cc1)C(C)(C)C`, with 0.4%; and `Cc1cccc(/N=C/c2ccccc2O)n1`, with -2.3%; and `O=S(=O)(NCc1cccnc1)c1ccc(Br)cc1Br`, with 10%.
Then `Cc1c(C(=O)Nc2ccc(N(C)C)cc2)cccc1[N+](=O)[O-]`, with 2.1%; and `Cc1cccc(OCC(=O)Nc2ccc(S(=O)(=O)Nc3nccs3)cc2)c1C`, with 3%.
Then `CCCCCCNC(=O)c1[nH]ncc1[N+](=O)[O-]`, with -0.4%; and `CCOc1ccc(N(CC(=O)NCC(C)C)S(C)(=O)=O)cc1`, with -0.2%.
Turning to `CC(=O)C1=C(O)CC(C)(C)CC1=Nc1ccc(N)cc1`, the displacement is -15.8%.
Regarding `COc1ccc(N(C)CN2C(=O)CSC2=O)cc1`, the displacement is 8%.
For `CCOc1cc(OCC)cc(C(=O)Nc2ccc([N+](=O)[O-])cc2)c1`, the displacement turned out to be 13.1%.
In the case of `C(=N\c1nc2ccccc2n1CCN1CCOCC1)/c1cccs1` it was 13.1%.
In the case of `O=CNC(NC(=S)Nc1ccc(F)cc1)C(Cl)(Cl)Cl` (stereo not given) it was -1.1%; in that of `CC(=O)c1cccc(NC(=O)c2cnn3c(-c4ccccc4)cc(-c4ccccc4)nc23)c1`, 11.4%; in that of `O=C(COc1cccc2ccccc12)NCc1ccncc1`, -3.1%.
Then `CCOC(=O)C1=C(O)/C(=C/c2cccc(O)c2)SC1=Nc1ccc([N+](=O)[O-])cc1`, with -1.1%; and `O=C(O)CCCC(=O)NCCC(c1ccccc1)c1ccccc1`, with 4.4%; and `Cc1cccc(N2C(=O)/C(=C/c3cccc(O)c3)SC2=S)c1`, with 7.5%.
Turning to `COC(=O)C1=C(C)N(CC(C)C)C(=O)/C1=C\c1cccc([N+](=O)[O-])c1`, the displacement came to 9.6%.
As to `O=C1/C(=C/c2ccc3c(c2)OCO3)SC(=S)N1Cc1ccco1`, the displacement is 94.5%.
`Cc1cc(NC(=O)c2ccc(-c3cccc([N+](=O)[O-])c3)o2)ccc1NC(=O)c1ccco1`: the displacement is -0.3%.
For the compound `Cc1oc2ccc(OCc3ccccc3F)cc2c1C(=O)O`, the displacement was found to be 12.9%.
Consider `COc1ccc(/C=C2\SC(N3CCCC3)=NC2=O)cc1OC`, for which the displacement amounted to 5.8%.
Then `CC(C)c1ccc(/C=C(\NC(=O)c2ccccc2)C(=O)NCCN2CCOCC2)cc1`, with 10.3%.
Then `CCC1=NN2C(=N)/C(=C/c3ccc4c(c3)OCO4)C(=O)N=C2S1`, with 3%.
In the case of `CCOc1cccc(/C=C2/C(=O)NN(c3cc(Cl)cc(Cl)c3)C2=O)c1O` it was 13.5%; in that of `COc1cc(/C=C2\SC(=S)N(c3cccc(C(=O)O)c3)C2=O)ccc1O`, -67.8%.
For the compound `CCOC(=O)c1c(NC(=O)C2CC3CCC2C3)sc2c1CCC(C)C2` (stereo not given), the displacement worked out at 2%.
For `Cc1nc(-c2ccccc2)nc2[nH]ccc(=O)c12`, the displacement was 11.9%.
In the case of `CC1=C(C(=O)OC(C)C)C(c2cccc(I)c2)C2=C(CCCC2=O)N1` (stereo not given) it was 4.2%.
Turning to `C/C(=N\Nc1cc(-c2ccccc2)nc(C)n1)c1cccc(N)c1`, the displacement is -9%.
In the case of `COc1cccc(NC(=O)c2ccc(C(=O)Nc3cccc(OC)c3)nc2)c1` it was 5.8%; in that of `COc1c(Cl)cc(C(=O)Nc2cccc(S(N)(=O)=O)c2)cc1Cl`, -2.2%; in that of `CCOC(=O)c1c(C)[nH]c(C=C2C(=O)CC(C)(C)CC2=O)c1O`, 17.3%.
For the compound `O=C(CC1S/C(=N\N=C\c2cccc(O)c2)NC1=O)Nc1ccccc1C(F)(F)F` (stereo not given), the displacement was found to be 10.1%.
Turning to `Cc1cccc(OCCn2c(C)nc3ccccc32)c1`, the displacement is -12.2%.
In the case of `CCOc1cc(C=C2C(=O)NC(=O)NC2=O)ccc1OCc1ccc(Cl)cc1` it was 9.6%; in that of `CCCCOc1ccc(NC(=O)c2cccc(C(F)(F)F)c2)cc1`, -7.6%.
Consider `Fc1ccc(NC(=S)Nc2ccc(I)cc2)cc1`, for which the displacement was -10.1%.
In the case of `CCOC(=O)c1ccccc1NC(=O)CN(c1ccccc1CC)S(C)(=O)=O` it was -7.4%.
Then `CC1CC(N(C(=O)c2cccs2)c2ccccc2)c2ccccc2N1` (stereo not given), with 18.1%; and `N/C(=N\c1nc(C(F)(F)F)cc(=O)[nH]1)Nc1ccc(Oc2ccccc2)cc1`, with 6.9%.
